{"source": "ChEMBL document CHEMBL4888484", "about": "“Replenishing the malaria drug discovery pipeline: Screening and hit evaluation of the MMV Hit Generation Library 1 (HGL1) against asexual blood stage Plasmodium falciparum ,using a nano luciferase reporter read-out” (2022)", "note": "Screen size: about 150,000 compounds; about 540 (0.36%) showed an effect of 50% or more. The list shows a part of the results.", "data": [{"system": "Plasmodium falciparum", "test": "Primary screen in NF54 nanoGlo assay, in single point, at 2uM, 72h; a lower Z score goes with more inhibition", "format": "functional, Erythrocyte", "settings": "timepoint 72 hour", "units": {"% Inhibition": "%"}, "values": [{"smiles": "Cc1csc([C@H](C)Nc2ccc3nnc(C)n3n2)n1", "% Inhibition": -6, "Z score": 0.8}, {"smiles": "CC(C)CN1C(=O)CC[C@@H]2CN(C(=O)c3onc4c3CCCC4)CC[C@@H]21", "% Inhibition": -5, "Z score": 0.66}, {"smiles": "CCNC(=O)[C@@H]1C[C@@H](NC(=O)c2csc(C)n2)CN1C(=O)c1ccoc1", "% Inhibition": -5, "Z score": 0.65}, {"smiles": "COc1ccc(CN2C(=O)N[C@@](C)(c3cnn(C)c3)C2=O)c(Cl)c1", "% Inhibition": -5, "Z score": 0.97}, {"smiles": "Cn1nc(C2CCOCC2)cc1C(=O)NC[C@H]1CCC(C)(C)O1", "% Inhibition": -1, "Z score": 0.17}, {"smiles": "O=C(CCn1cnccc1=O)N[C@H]1CCCc2c(F)cc(Cl)cc21", "% Inhibition": 3, "Z score": -0.44}, {"smiles": "CCCN(C[C@H]1CCCCO1)C(=O)c1nccnc1N", "% Inhibition": 4, "Z score": -0.76}, {"smiles": "CCN1C(=O)CO[C@H](c2nc(-c3ccnc4[nH]ccc34)no2)[C@H]1c1cnn(C)c1", "% Inhibition": 6, "Z score": -0.98}, {"smiles": "Cc1cnn(CC2CCN(Cc3cc4n(n3)CCNC4)CC2)c1", "% Inhibition": -6, "Z score": 1.19}, {"smiles": "Cc1cc(CN2CCc3c(c(CCC(=O)N4CCOCC4)nn3C)C2)n(C)n1", "% Inhibition": -10, "Z score": 1.4}, {"smiles": "O=C(NCCCc1ccccc1)C1CCN(c2ccc3nncn3n2)CC1", "% Inhibition": -14, "Z score": 2.18}, {"smiles": "COc1ccc2oc(C(=O)N3CC[C@H](Oc4ccc(Br)cn4)C3)cc2c1", "% Inhibition": -13, "Z score": 2.4}, {"smiles": "CC(=O)NCCc1nc(Cc2ccccc2)cs1", "% Inhibition": 3, "Z score": -0.4}, {"smiles": "O=C([C@@H]1CCCc2cccnc21)N1CCC(O)(Cc2ccc(F)cc2)CC1", "% Inhibition": -17, "Z score": 1.67}, {"smiles": "CC(C)[C@H](CNc1nc2ccccc2o1)N1CCN(C)CC1", "% Inhibition": 10, "Z score": -1.26}, {"smiles": "CCN1Cc2nc(OC)c(CNC(=O)c3cc(CC(C)C)[nH]c(=O)n3)cc2C1=O", "% Inhibition": -7, "Z score": 0.89}, {"smiles": "CC(=O)c1ccc(Cl)c(S(=O)(=O)Nc2nnc3ccccn23)c1", "% Inhibition": -9, "Z score": 1.21}, {"smiles": "CCn1ccc(C(=O)N2CC[C@@]3(CCCN(CC4CC4)C3=O)C2)cc1=O", "% Inhibition": -11, "Z score": 1.68}, {"smiles": "CC(=O)c1nn(C)cc1OCCC1CCC1", "% Inhibition": 2, "Z score": -0.26}, {"smiles": "CC(C)C(CNCc1nnn(C)n1)C(C)C", "% Inhibition": 35, "Z score": -5}, {"smiles": "CC(Cn1ncc2ccccc2c1=O)NC(=O)[C@H]1C[C@@H]1c1ccncc1", "note": "(stereo partly specified)", "% Inhibition": 8, "Z score": -1.02}, {"smiles": "CCN1C[C@H](CN(C)C(C)=O)Oc2ccccc21", "% Inhibition": -36, "Z score": 4.25}, {"smiles": "O=C(Nc1scnc1C1CC1)NC1CCN(CC2CC2)CC1", "% Inhibition": -1, "Z score": 0.15}, {"smiles": "COC(=O)c1[nH]c(C)c(CN(C)C(=O)c2ccc(Cl)cc2)c1C", "% Inhibition": -9, "Z score": 1.31}, {"smiles": "Cc1cccc(C(=O)N2CC(=O)N3CCc4ccccc4[C@@H]3C2)c1", "% Inhibition": 0, "Z score": -0.01}, {"smiles": "O=C(NCCc1c[nH]cn1)[C@H]1CC(=O)N(c2[nH]nc3ccccc23)C1", "% Inhibition": -10, "Z score": 1.17}, {"smiles": "O=C(Cc1ccon1)N1C[C@@H]2CCCN(C(=O)Cc3ccon3)[C@@H]2C1", "% Inhibition": -5, "Z score": 0.75}, {"smiles": "O=C(c1noc(-c2cccc(F)c2)n1)N1CC(O)(C(F)F)C1", "% Inhibition": -4, "Z score": 0.37}, {"smiles": "Cc1nnc(CN(C)Cc2cc(C(=O)O)ccc2Cl)s1", "% Inhibition": -7, "Z score": 0.77}, {"smiles": "CC1(C)CN(C(=O)c2c[nH]nc2-c2ccoc2)C[C@H](CO)O1", "% Inhibition": -1, "Z score": 0.2}, {"smiles": "O=C(N[C@H]1CCOC[C@@H]1Oc1ccccn1)c1ccc(CO)o1", "% Inhibition": 11, "Z score": -2.01}, {"smiles": "C[C@H](O)Cc1cn(C2CCN(c3ncnc4[nH]cnc34)CC2)nn1", "% Inhibition": -9, "Z score": 1.62}, {"smiles": "O=C(Nc1ccc(N2CCCC2)c2ncccc12)c1sccc1Cl", "% Inhibition": -3, "Z score": 0.45}, {"smiles": "COC(=O)c1nc(NC(=O)C(C)C)sc1CCc1ccccc1", "% Inhibition": -4, "Z score": 0.7}, {"smiles": "CCc1ccc(-c2cc(C(F)(F)F)on2)cc1S(=O)(=O)NCc1cccc(OC)c1", "% Inhibition": -8, "Z score": 1.23}, {"smiles": "CN(CCc1ccc(Br)cc1)C(=O)C[C@H](N)C1CC1", "% Inhibition": -3, "Z score": 0.35}, {"smiles": "O=C(Nc1cc(F)ccc1N1CCCCC1)N[C@@H](CCO)C1CC1", "% Inhibition": -9, "Z score": 1.77}, {"smiles": "CC(C)(C)c1csc([C@@H]2CN(C(=O)Cc3cncs3)CCO2)n1", "% Inhibition": 2, "Z score": -0.45}, {"smiles": "C[C@@]1(C(=O)NC2CCN(Cc3ccccc3)CC2)CCCCC(=O)N1", "% Inhibition": 2, "Z score": -0.28}, {"smiles": "O=S1(=O)CCC[C@@]2(C(F)(F)F)CN(S(=O)(=O)C3CC3)C[C@H]21", "% Inhibition": -6, "Z score": 0.72}, {"smiles": "Cc1cc(C(=O)N2CCN(C)C[C@@H]2C)c2n[nH]cc2c1", "% Inhibition": 3, "Z score": -0.27}, {"smiles": "O=C(Nc1nncs1)[C@H]1CC(=O)N(c2n[nH]c3cccc(F)c23)C1", "% Inhibition": 5, "Z score": -0.58}, {"smiles": "CCOc1cc([C@H]2NCCc3c2[nH]c2ccccc32)ccc1OCc1ccccc1Cl", "% Inhibition": 1, "Z score": -0.06}, {"smiles": "CC(C)c1ccc([C@H]2C[C@@H](c3ccc(F)cc3)Nc3ncnn32)cc1", "% Inhibition": -2, "Z score": 0.28}, {"smiles": "COc1ccccc1-c1nnc2c(C(=O)Nc3cccc(C)c3)cccn12", "% Inhibition": -8, "Z score": 1.25}, {"smiles": "Cc1oc(-c2ccccc2)nc1CN1CC[S@@+]([O-])CC1(C)C", "% Inhibition": -10, "Z score": 1.82}, {"smiles": "Cc1ccc(Cn2c([C@H]3CC(=O)Nc4n[nH]cc43)nc3ccccc32)cc1", "% Inhibition": -4, "Z score": 0.56}, {"smiles": "C=CCn1c(-c2ccc(F)cc2)cn2cc(C(=O)N[C@@H](C)CO)nc2c1=O", "% Inhibition": -3, "Z score": 0.65}, {"smiles": "COc1cc(CN(C)CCc2ccncc2)c(Cl)cc1OC(C)C", "% Inhibition": -14, "Z score": 1.43}, {"smiles": "Cc1ccnc(NC(=O)c2ccc(OCC3CCOCC3)nc2)n1", "% Inhibition": -12, "Z score": 2.24}, {"smiles": "CCn1cnnc1CN1CCC(N2C[C@H](COc3ccc(F)cc3)OCC2=O)CC1", "% Inhibition": -16, "Z score": 1.69}, {"smiles": "COc1ccc(-c2c(C(=O)N3CCN(C)CC3)nn3c(C)cc(C)nc23)cc1S(=O)(=O)N1CCCCC1", "% Inhibition": -10, "Z score": 1.71}, {"smiles": "COc1ccc2[nH]c([C@H](C)NC(=O)c3cccc4c3OCC4)nc2c1", "% Inhibition": 7, "Z score": -0.88}]}]}
